About 6,400 (1.6%) of roughly 410,000 compounds were called active. Inconclusive means that the source gave no clear call. Such entries were picked first, then a sample of the others. Calls come from the whole dose curve; as a rule, active = well fitted inhibition curve with a large enough effect; inconclusive = small, poorly fitted or top-dose-only effect; inactive = no such curve, though single readings can be large or run the other way. Potencies of inconclusive entries are doubtful fits and often do not repeat.
What follows are compounds tested against Glucagon-like peptide 1 receptor (Homo sapiens) (UniProt P43220) (assay: qHTS of GLP-1 Receptor Inverse Agonists (Inhibition Mode)). Conditions: HEK293 GLP-1R CRE-luciferase, luminescence, 24 h, GLP-1R form is constitutively active; activity change, negative = inhibition: at 38.3 µM (top of the series) unless noted.
In short: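 Inverse agonism was detected as reduced cAMP-driven luciferase luminescence after 24 h compound treatment. The cells were HEK293 clones expressing constitutively active human GLP-1R with the reporter. Reporter-only and GPR119 cell lines served as counterscreen controls.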
% is set by controls: 0 for no effect and ±100 for the full control effect; potency is the fitted concentration of half-maximal effect; tags give direction and shape of the fitted curve.
Note: nearly all actives have a fitted effect of over 55% in size.

Sequence of UniProt P43220 (P43220 whole entry, looked up): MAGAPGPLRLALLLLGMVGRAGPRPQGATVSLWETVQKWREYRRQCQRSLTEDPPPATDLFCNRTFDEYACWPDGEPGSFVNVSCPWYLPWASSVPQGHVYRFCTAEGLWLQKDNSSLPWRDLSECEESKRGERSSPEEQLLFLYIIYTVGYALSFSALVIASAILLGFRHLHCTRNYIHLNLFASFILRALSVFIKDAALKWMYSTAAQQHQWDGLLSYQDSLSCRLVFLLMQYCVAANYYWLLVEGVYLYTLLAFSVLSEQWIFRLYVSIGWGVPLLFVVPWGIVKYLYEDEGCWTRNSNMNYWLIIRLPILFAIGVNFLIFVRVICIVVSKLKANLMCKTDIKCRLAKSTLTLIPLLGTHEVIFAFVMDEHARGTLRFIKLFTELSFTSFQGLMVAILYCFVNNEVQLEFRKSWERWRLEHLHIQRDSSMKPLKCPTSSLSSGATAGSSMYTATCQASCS

Potency, inconclusive:
O=C(O)c1ccccc1C(=O)Nc1cc(C(F)(F)F)ccc1N1CCCC1 20 µM [inhibitor, single point]
CCN1CCN(c2ccc(S(=O)(=O)N3CCCCC3)cc2NC(=O)/C=C/c2ccc([N+](=O)[O-])cc2)CC1 8.91 µM [inhibitor, partial curve, poor fit]
COc1ccccc1OCC(=O)Nc1oc(-c2ccccc2)c(-c2ccccc2)c1C#N 12.6 µM [inhibitor, single point]
CC(C)c1ccc(NC(=S)NC2CCCCCC2)cc1 10 µM [inhibitor, partial curve, poor fit]
Cc1cccc(C2CC(=O)Nc3cc4c(cc32)OCO4)c1 (stereo unspecified) 10 µM [inhibitor, partial curve]
CN(c1ccc(C(=O)Nc2cccc(O)c2)cc1)S(=O)(=O)c1ccccc1 25.1 µM [inhibitor, single point]
Cn1c(NCCN2CCOCC2)nc2c1c(=O)n(Cc1cccc(Cl)c1)c(=O)n2C 8.91 µM [inhibitor, partial curve, poor fit]
C=CCN(c1ccccc1OC)S(=O)(=O)c1cccc(C(=O)NCC(c2ccc(OC)cc2)N2CCCC2)c1 (stereo unspecified) 7.94 µM [inhibitor, partial curve, poor fit]
CN(C)CCNc1ccc2nnn3c4ccc(O)cc4c(=O)c1c23 7.94 µM [inhibitor, single point]
CC(NC(=O)c1ccc(N2CCNCC2)c([N+](=O)[O-])c1)C12CC3CC(CC(C3)C1)C2 (stereo unspecified) 10 µM [inhibitor, partial curve, poor fit]
O=C1Nc2ccccc2N=C(c2ccccc2)C1N1CCOCC1 (stereo unspecified) 0.501 µM [inhibitor, full curve, poor fit]
CC(C)c1ccccc1-n1c(SCc2cc(=O)oc3ccc4ccccc4c23)nnc1-c1cccnc1 28.2 µM [inhibitor, single point]
Cc1ccccc1CN1CCC(C(=O)Nc2ccc(Oc3cccnc3)cc2)CC1 3.55 µM [inhibitor, partial curve, poor fit]
O=C(C1=C[C@H](c2csc3ccccc23)C[C@H](OCc2ccc(CO)cc2)O1)N1CCN(Cc2ccc3c(c2)OCO3)CC1 28.2 µM [inhibitor, single point]
C#CCNC(=O)C[C@@H]1C[C@@]2(C(=O)OC)CCCCC=C2N(CCCCCCCC)C1=O 10 µM [inhibitor, single point]
CSc1sc(C(=O)NCC2CC2)c(-c2cccs2)c1C#N 8.91 µM [inhibitor, partial curve, poor fit]
COc1cccc(Nc2nc3ccccc3n2C(C)C)c1 3.55 µM [inhibitor, partial curve, poor fit]
O=C(NNC(=O)c1ccccc1OCc1ccc(F)cc1)c1ccccc1O 3.98 µM [inhibitor, full curve]
CCN(CC(=O)NCc1ccc(Cl)cc1)C(=O)NCc1ccc(Cl)cc1 12.6 µM [inhibitor, single point]
Cc1ccc(O)c(/C=N/NC(=O)CN2CCCC2)c1 28.2 µM [inhibitor, single point]
COc1ccc(OC)c(N(CC(=O)NC2CC3CCC2C3)S(=O)(=O)c2ccccc2)c1 (stereo unspecified) 28.2 µM [inhibitor, single point]
O=C(COc1ccc(Br)cc1CNCCCN1CCOCC1)Nc1ccccc1 11.2 µM [inhibitor, partial curve]
Cc1ccc(NC(=O)C2(C)CCN2Cc2cccc3c2OCO3)cc1O (stereo unspecified) 12.6 µM [inhibitor, partial curve, poor fit]
CCCC(C(=O)NCCC(C)C)N(Cc1ccc(F)cc1)C(=O)c1snc(C(N)=O)c1N (stereo unspecified) 28.2 µM [inhibitor, single point]
CCN(C(=O)CSc1nc(-c2ccccc2)no1)c1ccccc1 11.2 µM [inhibitor, single point]
Cc1cccc(C2c3[nH]c4ccccc4c3CCN2C(=O)c2cc(CC(C)C)nc(C)n2)n1 (stereo unspecified) 28.2 µM [inhibitor, single point]
CC(=O)N1CC(C)Sc2ccc(S(=O)(=O)NCCc3ccccc3)cc21 (stereo unspecified) 8.91 µM [inhibitor, partial curve, poor fit]
O=C(O)c1[nH]c2ccccc2c1C(c1cc(Cl)cc([N+](=O)[O-])c1O)c1c(C(=O)O)[nH]c2ccccc12 28.2 µM [inhibitor, single point]
Cc1ccc(S(=O)(=O)N2C[C@@H]3[C@H]4CC[C@H](C4)[C@@H]3[C@@H](C)[C@H]2c2ccco2)cc1 10 µM [inhibitor, partial curve, poor fit]
COc1ccc(OC)c(CN2CCN(C(=O)CNC(=O)c3cc(C)cc(C)c3)CC2)c1 28.2 µM [inhibitor, single point]
Cc1cccc(OCCNc2cc(N3CCN(CCO)CC3)ccc2[N+](=O)[O-])c1 12.6 µM [inhibitor, single point]
Nc1ccc2ccccc2c1C(=O)c1ccccc1 11.2 µM [inhibitor, partial curve]
O=c1c2ccccc2[nH]c(=S)n1Cc1ccccc1Cl 5.62 µM [inhibitor, full curve, poor fit]
CO[C@@H]1CN(C)C(=O)c2cc(NC(=O)NC3CCCCC3)ccc2OC[C@@H](C)N(CCc2ccccc2)C[C@@H]1C 28.2 µM [inhibitor, single point]
CC1=C(C(=O)Nc2cccc(C(=O)NC3CCCCC3C)c2)SCCO1 (stereo unspecified) 8.91 µM [inhibitor, partial curve, poor fit]
C/C(=N\Nc1cccc(C(F)(F)F)c1)c1ccc(O)cc1 2.82 µM [inhibitor, full curve]
CCCCN(CC)C(=O)c1nn(-c2ccc(OC)cc2)c(=O)c2c1c1ccccc1n2C 28.2 µM [inhibitor, single point]
CCN(CC)C(=O)[C@H]1CC(CC(=O)NCCC2=CCCCC2)C(=O)N2CCc3c([nH]c4ccc(OC)cc34)[C@]12C (stereo partly specified) 25.1 µM [inhibitor, single point]
CCS(=O)(=O)c1oc(-c2ccc(F)cc2)nc1S(=O)(=O)c1ccccc1 14.1 µM [inhibitor, single point]
CCOC1=C2[C@@H](CN(S(=O)(=O)c3ccc(C)cc3)[C@H]2c2cccc3ccccc23)[C@H]2C(=O)N(CC)C(=O)[C@H]2C1 28.2 µM [inhibitor, single point]
O=C(N/N=C/c1ccco1)c1ccccc1OCc1ccccc1Cl 28.2 µM [inhibitor, single point]
CCN(CC)C(=O)/C(=C/c1ccc2c(c1)OCO2)NC(=O)c1ccc(Br)cc1 20 µM [inhibitor, single point]
CCOc1ccc(OCC)c(NC(=O)CCS(=O)(=O)c2ccc(Br)s2)c1 12.6 µM [inhibitor, single point]
COc1ccc(SCC(=O)Nc2ccc(N3CCN(C)CC3)c(F)c2)cc1 5.01 µM [inhibitor, full curve]
Clc1ccccc1CSc1nnc(C2CCNCC2)o1 8.91 µM [inhibitor, partial curve, poor fit]
COc1ccc(CNc2cc(C)ccn2)cc1 7.08 µM [inhibitor, partial curve, poor fit]
COc1ccc(NC(=O)c2cccc(Cn3cc(Br)c([N+](=O)[O-])n3)c2)c(C)c1 31.6 µM [inhibitor, partial curve, poor fit]
C[C@@]12C(=O)N(c3cccc(Cl)c3)C(=O)N1[C@H](c1ccc(Cl)cc1)[C@@H]1C(=O)N(C3CCCCC3)C(=O)[C@@H]12 8.91 µM [inhibitor, partial curve, poor fit]

Potency, active:
O=[N+]([O-])c1ccc(O)c(/C=N/NC(=S)Nc2ccc(Cl)cc2Cl)c1 2 µM

Potency, inactive:
COC(=O)c1ccc(NC(=O)CN2C(=O)CC(c3ccccc3)Sc3ccccc32)cc1 (stereo unspecified)
COc1ccc(CNC(=O)CCc2c(C)c3cc4c(C)c(C)oc4cc3oc2=O)cc1OC
Cc1csc(NC(=O)c2ccccc2O)n1
CCc1nc2nc(C)cc(Nc3cccc(C)c3C)n2n1
Cc1cc(NCCCn2ccnc2)n2nc(C)c(-c3ccccc3)c2n1
Cc1ccc2occ(-c3cc(-c4ccc(F)cc4)nc4c3COc3ccc(F)cc3-4)c(=O)c2c1
COc1ccc(CNC(=O)[C@H](C)NC(=O)C2CCN(C(=O)[C@@H](N)CCSC)CC2)cc1
O=[N+]([O-])/C=C/c1cn(Cc2ccc(F)cc2)c2ccccc12
Cc1ccc(C)c(N2CCN(C(=O)c3cc4c(=O)oc5ccccc5c4s3)CC2)c1
Cc1ccc(S(=O)(=O)N2CCN(C(=O)c3c(C)nn(-c4ccccc4)c3Cl)CC2)cc1
Fc1ccc(C2=CC(c3ccco3)n3ncnc3N2)cc1 (stereo unspecified)

Activity change, negative = inhibition, inactive:
Fc1ccc2nc(Nc3ccccc3)sc2c1 -5.86% [at 0.307 µM]

— PubChem BioAssay AID624417 (National Center for Advancing Translational Sciences (NCATS), 2012)
